# Laboratory results: PubChem BioAssay AID686978 (National Center for Advancing Translational Sciences (NCATS), 2013)
# In all, about 420,000 compounds went through this assay and about 64,000 (15%) were called active. Inconclusive results, whose numbers are uncertain, are shown with a selection of clear calls. Calls follow the shape of the dose curve; as a rule, active = well fitted inhibition curve with a large enough effect; inconclusive = small, poorly fitted or top-dose-only effect; inactive = flat fitted curve, though single readings scatter. No potency is given beside an inconclusive call; the fits are too rough.
# Test: qHTS for Inhibitors of human tyrosyl-DNA phosphodiesterase 1 (TDP1): qHTS in cells in absence of CPT; also: nearly all actives have a fitted effect of over 55% in size
# Conditions: DT40 Tdp1-/- hTDP1 cells, no CPT, ATP luminescence, 48 h; activity change, negative = growth inhibition: at 46.2 µM (top of the series) unless noted
# How it was run: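 A cellular qHTS used chicken DT40 cells lacking endogenous Tdp1 but carrying stably transfected human TDP1. Compounds were applied without camptothecin, and cell growth kinetics were judged by ATP-dependent luminescence after ≥48 hr.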
# % is scaled to controls: 0 for no effect and ±100 for the full control effect; potency is read from the fitted curve at half-maximal effect; tags tell the direction and shape of the fitted curve.
Compound,Potency,"activity change, negative = growth inhibition"
CN1CCN(c2ccc(CNS(=O)(=O)Cc3cccc(C(F)(F)F)c3)cc2)CC1,active: 3.66 µM,
COc1ccc(C(C)=O)cc1Cn1c(C)c(C(=O)NCCC#N)sc1=O,,inconclusive: -30.2% [inhibitor]
Cc1nc(SCC(=O)NCCc2ccc(Cl)cc2)nc(C)c1C,,inactive: -0.499%
CSCC[C@H](NS(=O)(=O)c1ccc(C)cc1)C(=O)N1CCC(C(=O)N[C@@H](C)C(=O)O)CC1,,inactive: -2.18%
COC(=O)c1cc(CNC(=O)c2ccccc2OC)cc(NC(=O)c2ccccc2F)c1,active: 16.4 µM,
CC(C)OC(=O)CC(=O)CSc1nc(-c2ccc(F)cc2)cc(-c2ccccc2)c1C#N,"inconclusive [inhibitor, single point]",
COc1ccc(-c2nn(-c3ccccc3)cc2C(=O)NC(=S)N2CCOCC2)cc1OC,"inconclusive [inhibitor, partial curve]",
COc1ccc(-c2cc3ncccc3cn2)cc1,"inconclusive [inhibitor, single point]",
O=C(c1ccccc1)c1ccc(N2CCOCC2)cc1,"inconclusive [inhibitor, partial curve, poor fit]",
CC(C)(C)n1nc(C2CC2)cc1NC(=O)Nc1ccc(Cl)cc1,,inactive: -11.8%
O=C(COC(=O)c1c(Cl)cccc1Cl)Nc1ccccc1Br,"inconclusive [inhibitor, single point]",
COc1ccc(OC)c(S(=O)(=O)N2CCC(C(=O)N3CCc4ccccc4C3)CC2)c1,active: 23.1 µM,
CCOc1ccc(CN2CCOc3ccc(C(O)c4cccnc4)cc3C2)cc1 (stereo unspecified),"inconclusive [inhibitor, single point]",
Cc1cc(-c2ccccc2)nc(Nc2nc3c(C)cccc3c(=O)[nH]2)n1,"inconclusive [inhibitor, partial curve]",
CCOC(=O)c1ccc(COC(=O)c2ccc3c(c2)-c2ccccc2C3=O)cc1,"inconclusive [inhibitor, partial curve]",
O=C(/C=C/c1ccccc1)N(Cc1cccc(Cl)c1)C1CCS(=O)(=O)C1 (stereo unspecified),"inconclusive [inhibitor, partial curve]",
Cc1cc(C)nc(Nc2nc(C(N)CCc3ccccc3)cs2)n1 (stereo unspecified),active: 20.6 µM,
CN(C)CCCNC(=O)c1ccc(Oc2ccccc2)cc1,,inconclusive: -35.7% [inhibitor]
COc1ccc(C(C)=O)cc1COC(=O)c1cc2ccccc2cc1O,"inconclusive [inhibitor, partial curve]",
Cc1ccccc1CSc1nnc2ccc(-c3ccncc3)nn12,,inactive: -0.892%
Cc1cccc(C(=O)NC(=S)Nc2cccc3nc(C)ccc23)c1,"inconclusive [inhibitor, single point]",
CCN(C(=O)CSc1nnc(C(C)N(C)C)n1-c1ccc(F)cc1)C1CCS(=O)(=O)C1 (stereo unspecified),,inactive: 9.1%
O=C(NCC1CCCN1S(=O)(=O)c1cccs1)c1cccc([N+](=O)[O-])c1 (stereo unspecified),,inactive: -27.8%
Cc1c(Cl)cccc1NC(=O)Cn1nnc(-c2nc(-c3ccccc3)no2)c1N,,inactive: 5.03%

Compound,Potency,"activity change, negative = growth inhibition"
Cc1c(NC(=O)c2sc3ccccc3c2Cl)cccc1-c1nc2ccccc2o1,,inactive: -7.73%
O=C(Oc1cccc([N+](=O)[O-])c1)C1CCN(C(=O)c2ccc(F)cc2)CC1,,inactive: -15.4%
Cc1ccc(NC(=O)CSc2nc3cc(C(=O)NCC4CCCO4)ccc3c(=O)n2CC2CCCO2)cc1 (stereo unspecified),"inconclusive [inhibitor, single point]",
CCOC(=O)CN(c1ccccn1)S(=O)(=O)c1ccccc1,,inactive: -9.07%
Cc1cccc(NC(=O)CCC(=O)N/N=C/c2cccnc2)c1,,inactive: 11.3%
Cc1ccc(Cn2c3ccccc3c3cn[nH]c(=O)c32)cc1,"inconclusive [inhibitor, single point]",
COc1cc(NC(=O)CN2C(=O)C(c3ccccc3)=NC2(C)C)cc(OC)c1,,inactive: 2.19%
CC(OC(=O)CNC(=O)C12CC3CC(CC(C3)C1)C2)C(=O)Nc1ncc(Cl)cc1Cl (stereo unspecified),,inactive: -9.38%
COc1ccccc1N(CC(=O)NC(C)(C)C)C(=O)Cn1nnc(-c2ccc(C)o2)n1,"inconclusive [inhibitor, single point]",
Cc1cccnc1NC(=O)C1c2ccccc2Oc2ccccc21,,inconclusive: -30.3% [inhibitor]
CC1(C)C2CC[C@]3(C)[C@H](C(=O)C=C4[C@@H]5C[C@@](C)(C(=O)O)CC[C@]5(C)CC[C@]43C)[C@@]2(C)CC[C@@H]1O[C@H]1O[C@H](C(=O)O)[C@@H](O)[C@H](O)[C@H]1O[C@@H]1O[C@H](C(=O)O)[C@@H](O)[C@H](O)[C@H]1O (stereo partly specified),,inactive: -5.63%
Cc1ccc(S(=O)(=O)c2c(C)cc(C)nc2Oc2cccc(C(F)(F)F)c2)cc1,"inconclusive [inhibitor, single point]",
Cc1ccccc1Nc1c(-c2ccc(N3CCOCC3)cc2)nc2cnccn12,"inconclusive [inhibitor, single point]",
COc1ccc(C(C[N+](=O)[O-])c2c(C)cc3ccccn23)cc1 (stereo unspecified),active: 18.4 µM,
CCCOc1ccc(OC(=O)c2cn(-c3ccc(OC)cc3)c(=O)c3ccccc23)cc1,active: 16.4 µM,
CCn1cc(C(=O)NCCc2ccc(C)cc2)c(=O)c2cc(S(=O)(=O)N3CCC(C)CC3)ccc21,"inconclusive [inhibitor, single point]",
CCc1cc(=O)[nH]c(SCC(=O)Nc2ccc3c(c2)OCCO3)n1,,inactive: -18%
O=C(NC1CCCC1)c1c[nH]c2ccc(F)cc2c1=O,"inconclusive [inhibitor, single point]",
Cc1ccn2c(NC3CCCC3)c(-c3cccs3)nc2c1,active: 23.1 µM,
Cn1c(-c2ccc(F)cc2)cnc1NCc1cccc([N+](=O)[O-])c1,"inconclusive [inhibitor, single point]",
COc1ccc(C(=O)NCCCSc2ccccc2)cc1F,"inconclusive [inhibitor, single point]",
CC1CCC(NC(=O)c2ccc(Br)o2)CC1 (stereo unspecified),"inconclusive [inhibitor, single point]",
O=S(=O)(NCC1CCCO1)c1ccc(S(=O)(=O)N(Cc2ccccc2F)C2CCCCC2)cc1 (stereo unspecified),"inconclusive [inhibitor, single point]",
c1ccc(-c2nnc(N3CCCC3)nc2-c2ccccc2)cc1,"inconclusive [inhibitor, single point]",

Compound,Potency,"activity change, negative = growth inhibition"
Cc1cc(C)c2cc(C#N)c(SCC(=O)Nc3cc(C)on3)nc2c1,"inconclusive [inhibitor, partial curve, poor fit]",
O=C(Nc1ccc2nc3n(c(=O)c2c1)CCCC3)c1cncc(Br)c1,"inconclusive [inhibitor, single point]",
O=C(CCc1ccccc1)OCCOC(=O)CCc1ccccc1,,inactive: 1.74%
CCOc1ccc(N(CC(=O)NCc2cccc(OC)c2)S(=O)(=O)c2c(C)noc2C)cc1,"inconclusive [inhibitor, partial curve]",
CN(C)C(=O)[C@@H]1C[C@@H](Sc2nc3ccccc3[nH]2)CN1Cc1ccnc2ccccc12,active: 14.6 µM,
Cc1ccnc2nc(C(=O)OCC(=O)NCCc3ccccc3)nn12,,inactive: 12.5%
Cc1nnc(SCC(=O)Nc2nc(C(C)(C)C)cs2)s1,"inconclusive [inhibitor, single point]",
OC1C=CSc2nc3ccccc3n21 (stereo unspecified),active: 14.6 µM,
COc1cc(NC(=O)c2nc3ccccc3n(C)c2=O)cc(OC)c1OC,"inconclusive [inhibitor, partial curve, poor fit]",
Cc1ccc(S(=O)(=O)Nc2c(C)n(C)n(-c3ccccc3)c2=O)cc1C(=O)OCC(=O)N1CCCC(C)C1 (stereo unspecified),,inactive: 3.46%
CN(C)S(=O)(=O)N(CC(=O)Nc1ccccc1)c1ccccc1,,inactive: -4.45%
COc1ccc(NC(=O)Cn2nc(C(F)(F)F)c3c2CCCC3)cc1OC,"inconclusive [inhibitor, partial curve]",inconclusive: -35.1% [inhibitor]
COc1ccc(Oc2coc3cc(OC(=O)N4CCOCC4)ccc3c2=O)cc1,"inconclusive [inhibitor, single point]",
COc1cccc(-c2nn3c(=O)cc(CN4CCN(C(=O)/C=C/c5ccccc5)CC4)nc3s2)c1,"inconclusive [inhibitor, partial curve, poor fit]",
O=C(CCCNS(=O)(=O)c1cccs1)N1CCN(c2ccc(F)cc2)CC1,,inconclusive: -36.3% [inhibitor]
Cc1cccc(N2CCN(C(=O)c3ccc4c(Cl)c5c(nc4c3)CCCC5)CC2)c1C,"inconclusive [inhibitor, single point]",
Cn1c(CN2CCCC2)nc2cc(NC(=O)c3ccc(Cl)cc3)ccc21,"inconclusive [inhibitor, single point]",
CCOc1ccccc1NC(=O)C1=C(C)Nc2ncnn2C1c1cccs1 (stereo unspecified),"inconclusive [inhibitor, single point]",
COc1ccc(CNC(=O)C2=CC(c3cccc(OC)c3)=NS(=O)(=O)N2C)cc1,,inactive: 8.77%
O=C(Nc1ccc(S(=O)(=O)NCc2ccco2)cc1)C1CCCCC1,,inactive: -22.1%
CCc1cccc(CC)c1NC(=O)C(CC)Sc1nc2ccncc2[nH]1 (stereo unspecified),,inactive: -15.5%
COC(=O)[C@]1(C)N[C@H](CN(C)C(=O)Nc2ccc(Cl)cc2)[C@@H]2C(=O)N(Cc3ccccc3)C(=O)[C@@H]21,"inconclusive [inhibitor, partial curve]",
